According to PubChem BioAssay AID463173 (ICCB-Longwood Screening Facility, Harvard Medical School, 2010):
Out of some 52,000 compounds screened, about 4,300 (8.3%) were called active. No stated cut-off is given here; in the data, active means survival mostly below about 52% (no sharp cut-off); inactive means mostly above about 56%. This is one part of the list.

Each molecule was assayed on DeltatarO mutant (assay: S. aureus survival, RN4220 and DeltatarO strains – OD600, teichoic acid synthesis inhibitors, primary screen (AID 463173)). Settings: S. aureus RN4220 wild type/DeltatarO growth, OD600, 18 h, active compounds read low, screened at 18.75 µg/mL (by protocol).

| SMILES | survival |
| --- | --- |
| CCOC(=O)c1cccc(NC(=O)C2CCN(S(=O)(=O)c3ccc4c(c3)oc(=O)n4C)CC2)c1 | inactive: 67% |
| COc1ccc(S(=O)(=O)N(CCc2ccccc2)CC(=O)Nc2cccc(OC)c2)cc1 | inactive: 133% |
| CCc1ccc(C(=O)COC(=O)C(Cc2c[nH]c3ccccc23)NC(=O)c2ccc(Br)cc2)cc1 (configuration not stated) | inactive: 142% |
| CCOc1ccc(C2c3cc(OCC)c(OCC)cc3CC(=O)N2c2ccc(C(=O)O)cc2)cc1OCC (configuration not stated) | inactive: 74% |
| COc1ccccc1N1CCN(c2ncnc3c2cnn3C)CC1 | inactive: 83% |
| CC(C)(C)OC(=O)N1CCN(C(=O)OC(C)(C)C)CC1 | inactive: 98% |
| CCOc1ccccc1-n1cc2c(c1-c1ccc(OC)cc1)c(=O)n(C)c(=O)n2C | inactive: 88% |
| O=C(Nc1ccc(N2CCOCC2)cc1)c1ncn[nH]1 | inactive: 86% |
| Cc1ccc(N(C)C(=O)C2CCN(S(=O)(=O)c3ccc4c(c3)CCCN4C(=O)C3CCC3)CC2)cc1 | inactive: 94% |
| COc1ccc(NC(=O)c2cn(-c3ccccc3)nc2-c2ccc(C)cc2)cc1 | inactive: 63% |
| COC(=O)c1ccc(NC(=O)CN2CCN(c3ccc(Cl)cc3)CC2)cc1 | inactive: 92% |
| O=C1CC(c2ccccc2)Cc2[nH]c(=O)c(C(=O)Nc3cccc(Cl)c3)cc21 (configuration not stated) | active: 8% |
| Cc1ccccc1-c1nn2c(=O)cc(CN3CCN(C(=O)c4ccc(C(C)(C)C)cc4)CC3)nc2s1 | inactive: 97% |
| O=C(CSc1nc(-c2ccccc2)no1)N1CCCCC1 | active: 39% |
| CCOC(=O)N1CCc2c(sc3c2c(=O)n(CCc2ccccc2)c(=O)n3Cc2ccc(F)cc2)C1 | inactive: 100% |
| COc1ccc(C(=O)CN2C(=O)N(c3ccc(C(C)=O)cc3)S(=O)(=O)c3ccccc32)cc1 | inactive: 89% |
| O=C(O)CN(c1cccc(C(F)(F)F)c1)S(=O)(=O)c1ccccc1 | inactive: 58% |
| Cc1ccc(Cn2nnc(C(=O)Nc3ccc(F)c(F)c3)c2N)cc1 | inactive: 77% |
| COc1ccc(S(=O)(=O)N2CCC(n3c(C(F)(F)F)nc4cccnc43)CC2)cc1OC | inactive: 67% |
| CCCOc1ccc(C2C3CN(CC)CC=C3C(C#N)=C(N)C2(C#N)C#N)cc1OC (configuration not stated) | active: 0% |
| Cc1ccc(NC(=O)CN(C)S(=O)(=O)c2ccc3nc(C)sc3c2)c(C)c1 | inactive: 100% |
| O=C(NC1CC2CCCC(C1)N2CC(=O)N1CCCc2ccccc21)c1ccccc1 (configuration not stated) | inactive: 85% |

| SMILES | survival |
| --- | --- |
| COc1cc(NC(=O)CSc2nc3nc(C)c(Cc4ccc(C)cc4)c(C)n3n2)cc(OC)c1 | inactive: 94% |
| CCCSCCCNC(=O)c1ccc(Cn2c(=O)c3cccn3c3cccnc32)cc1 | inactive: 66% |
| CCC(=O)Nc1cccc(NC(=O)CSc2nnnn2C2CCCC2)c1 | inactive: 106% |
| Cc1c(Cl)cccc1NC(=O)CN1C(=O)COc2ccc(S(=O)(=O)Nc3ccccc3)cc21 | inactive: 60% |
| CCCOC(=O)CSc1nnc2ccc3ccccc3n12 | inactive: 72% |
| CCOC(=O)c1cccc(NC(=O)C(C)n2c(C)c3cnn(-c4ccccc4)c(=O)c3c2C)c1 (configuration not stated) | inactive: 105% |
| COc1ccc(NC(=O)c2ccc3c(c2)CCN3S(=O)(=O)c2ccc(C)cc2)cc1Cl | inactive: 107% |
| CCC(Sc1nc2cc(OC)c(OC)cc2c(=O)n1CCc1ccc(Cl)cc1)C(=O)NCCOC (configuration not stated) | inactive: 89% |
| CCOc1ccc(-c2cc(OC(=O)c3ccccc3)c3c(C)oc(C)c3c(=O)c2)cc1 | inactive: 64% |
| Cn1nnc2c(N3CCN(c4ccccc4F)CC3)ncnc21 | inactive: 83% |
| COc1cc2nc(SCc3cccc(Cl)c3)n3nc(CCn4nc(C)cc4C)nc3c2cc1OC | inactive: 79% |
| Cc1cc(C)cc(OCC(=O)Nc2ccc(-c3nc4ccccc4s3)cc2)c1 | inactive: 68% |
| Cc1ccc(NC(=O)N(Cc2cn(C)c3ccccc23)C2CCCCC2)cc1C | active: -13% |
| Cc1ccccc1C(=O)Nc1cccc(C(=O)OCc2cc(=O)n3c4c(sc3n2)CCCC4)c1 | active: 46% |
| O=C(Nc1cccc(Cl)c1)N1CCC(n2nnc3cc(F)ccc32)CC1 | inactive: 97% |
| CC(C)NC(=O)c1ccc(-n2c(-c3ccccc3)cc3c2CCCCC3)cc1 | inactive: 108% |
| Nc1ncc(S(=O)(=O)NCc2ccc(Cl)cc2)cn1 | inactive: 90% |
| COc1ccc(Cl)cc1NC(=O)Cn1cc(C(=O)c2ccncc2)c(=O)c2cc(C)ccc21 | inactive: 81% |
| Cc1ccc(Nc2c(-c3ccncc3)nc3ccc(C)cn23)cc1 | inactive: 102% |
| CCOc1ccc(OCC)c(S(=O)(=O)N2CCN(c3cccc(C)c3C)CC2)c1 | inactive: 118% |
| CCOC(=O)C1CCN(c2ncnc3c2nnn3C)CC1 | active: 37% |
| Cc1ccc(CN(C(=O)COc2cccc([N+](=O)[O-])c2)c2ccccn2)cc1 | active: 39% |

| SMILES | survival |
| --- | --- |
| Cc1ccc(-n2c(SCC(=O)NCc3ccc(F)cc3)nc3c([nH]c4ccccc43)c2=O)cc1 | inactive: 88% |
| CCCCNC(=O)CSc1nc2cc3c(cc2c(=O)n1CCCCCC(=O)NCc1ccc2c(c1)OCO2)OCO3 | inactive: 90% |
| COc1ccc(N(CC(=O)NCCc2ccccc2)S(=O)(=O)c2ccccc2)c(OC)c1 | inactive: 57% |
| Cc1ccc2oc3c(c(=O)c2c1)C(c1ccccc1F)N(CCCN1CCOCC1)C3=O (configuration not stated) | inactive: 75% |
| COc1cc2c(cc1OC)C(COc1ccc(F)cc1)N(C(=O)Cc1ccc(F)cc1)CC2 (configuration not stated) | inactive: 74% |
| Cc1cc(C)cc(NC(=O)CCc2c(C)nn(-c3ccc(N4CCCC4)nn3)c2C)c1 | inactive: 74% |
| O=S(=O)(c1ccccc1)c1nc(-c2ccc(Cl)cc2Cl)oc1N1CCCCCC1 | inactive: 49% |
| COc1ccc(CNC(=O)Cn2nnc(-c3ccc(S(C)(=O)=O)cc3)n2)cc1 | inactive: 73% |
| CC(C)c1ccc(CNc2nc(-c3ccco3)nn2S(=O)(=O)c2ccc3ccccc3c2)cc1 | inactive: 106% |
| Cc1cc(C)cc(N2CCn3c2nc2c3c(=O)n(Cc3ccc(Cl)cc3)c(=O)n2C)c1 | inactive: 94% |
| CCCS(=O)(=O)c1ncc(Cl)c(C(=O)Nc2scc(-c3ccccc3)c2C(=O)OCC)n1 | active: 25% |
| C#CCN1C(=O)C(O)(CC(=O)c2ccccc2)c2ccccc21 (configuration not stated) | inactive: 65% |
| CCN1CCN(c2ccc(NS(=O)(=O)c3c(C)nc4sccn4c3=O)cc2Cl)CC1 | inactive: 108% |
| COc1ccc(C2NC(=O)CS2)cc1 (configuration not stated) | inactive: 92% |
| CCOc1ccc(-n2c(C)nc3cc(C(=O)NCCC4=CCCCC4)ccc32)cc1 | active: -4% |
| COc1ccc(CNC(=O)CCC(=O)N2CCSc3ccccc32)cc1 | inactive: 97% |
| COc1ccc(C(=O)CC2(O)C(=O)N(Cc3ccccc3Cl)c3ccccc32)cc1 (configuration not stated) | inactive: 62% |
| CCOC(=O)c1ccc(NC(=O)C2=C(C)Nc3nc(SCc4ccc(Cl)cc4)nn3C2c2ccc(OC)cc2)cc1 (configuration not stated) | inactive: 90% |
| CC1=C(C#N)C(c2cccc(Oc3ccccc3)c2)C2=C(CCCC2=O)N1 (configuration not stated) | inactive: 54% |
| COc1ccc(-c2nnc(SCC(=O)Nc3ccc(Cl)cc3)s2)cc1 | inactive: 84% |
| COc1cccc(-c2cc(C(=O)Nc3cc(OC)c(OC)c(OC)c3)on2)c1 | inactive: 56% |
| CCCCNC(=O)C1CCCN(S(=O)(=O)c2ccc(-n3cnnn3)cc2)C1 (configuration not stated) | inactive: 98% |

| SMILES | survival |
| --- | --- |
| COc1cccc2c1cc1c(=O)n(CC(=O)N3CCN(c4cc(Cl)ccc4C)CC3)nc(C)n12 | inactive: 74% |
| O=C(CCCn1c(=O)c2cccn2c2cccnc21)NCc1ccc(F)cc1 | inactive: 101% |
| CCC1CCCCN1CC(=O)N1CCCc2c1c(=O)oc1ccc(OCc3ccccc3)cc21 (configuration not stated) | active: 18% |
| CCCCSc1ncnc2c1c(-c1ccccc1)cn2-c1cccc(F)c1 | inactive: 78% |
| CCN(CC)CCNC(=O)c1ccc2c(c1)sc1nc(-c3ccc(F)cc3)cn12 | active: 29% |
| CCOC(=O)Cn1cnc2onc(-c3ccc(F)cc3)c2c1=O | inactive: 141% |
| COc1ccc(C(CNC(=O)COc2ccc(Cl)c(C)c2)N2CCOCC2)cc1 (configuration not stated) | inactive: 63% |
| CC(=O)Nc1cc(NC(C)=O)cc(-c2nc3ccccc3[nH]2)c1 | inactive: 83% |
| O=C1c2ccccc2CN1c1ccccc1 | inactive: 76% |
| COc1ccc(CNC(=O)CN(c2ccccc2)S(=O)(=O)N(C)C)cc1 | inactive: 145% |
| CCOC(=O)c1cc2c(=O)n3ccccc3nc2n(CCCOC)c1=NC(=O)C(C)Oc1ccccc1 (configuration not stated) | active: 48% |
| CCOc1cc(CNc2ccc(O)cc2)ccc1OCc1ccc(Cl)cc1 | inactive: 53% |
| CN(C)S(=O)(=O)c1ccc(C(=O)N2CC(=O)Nc3ccc(Br)cc3C2c2ccc(F)cc2)cc1 (configuration not stated) | inactive: 59% |
| Cc1ccc(CNC(=O)c2ccc(Cn3c(SCc4ccccc4F)nc4cccnc43)cc2)cc1 | inactive: 80% |
| CCOc1ccc(CC(=O)NCCc2sc3nc(-c4ccc(OC)cc4)nn3c2C)cc1 | inactive: 86% |
| Cc1cc(=O)n(Cc2cccc(Cl)c2)c2c1c(C)nn2-c1ccccc1 | inactive: 81% |
| Cc1cc(C)cc(NC2=CC(c3cccc(F)c3)N(c3cc(C)cc(C)c3)C2=O)c1 (configuration not stated) | inactive: 87% |
| CCN(CC)C(=O)c1sc2c(c1C)c(=O)n(-c1ccccc1)c(=O)n2CC(=O)Nc1ccc(C)cc1C | inactive: 93% |
| Cc1cccc(-n2c(=O)c3c4c(sc3n3cnnc23)CCCC4)c1 | inactive: 72% |
| CCN1CCN(c2c(S(=O)(=O)c3ccc(C)c(C)c3)cnc3cc(OC)c(OC)cc23)CC1 | inactive: 75% |
| CCc1ccc(S(=O)(=O)c2nnn3c2nc(NC2CCCCCC2)c2sccc23)cc1 | inactive: 72% |
